For this experiment, the target named is nerve growth factor (NGF) (human or rat) (UniProt P01138). Briefly: cell-based or functional assay.

For 34 molecules, concentration for 50% inhibition of NGF induced activity, DRG neutralization assay results are on record in patent publication US20040121959A1.

UniProt P01138, sequence (P01138 122-241 limits assumed): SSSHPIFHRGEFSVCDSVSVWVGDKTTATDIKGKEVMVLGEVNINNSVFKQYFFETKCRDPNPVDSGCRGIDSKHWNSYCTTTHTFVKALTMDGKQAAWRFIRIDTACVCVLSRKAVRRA

On to [… human IgG1 Fc …]GGGGGAQMIDWLSQNRLFEQYFELIPPGVLE (Fc fusion) [matured modified peptide: Fc-(L SEQ ID NO: 285)-(P SEQ ID NO: 239), C-term], for which the concentration for 50% inhibition of NGF induced activity, DRG neutralization assay was less than 20 nM.

On to [… human IgG1 Fc …]GGGGGAEVEWQWCWFTEEGCPLPLRLE (Fc fusion) [matured modified peptide: Fc-(L SEQ ID NO: 285)-(P SEQ ID NO: 265), C-term], for which the concentration for 50% inhibition of NGF induced activity, DRG neutralization assay is more than 20 nM. Molecule [… human IgG1 Fc …]GGGGGAQQTEWLWSLPLVEQYFSLVPPGYLE (Fc fusion) [matured modified peptide: Fc-(L SEQ ID NO: 285)-(P SEQ ID NO: 225), C-term] showed a concentration for 50% inhibition of NGF induced activity, DRG neutralization assay of more than 20 nM. [… human IgG1 Fc …]GGGGGAQLQALLRELPLYEQFFRLMPPGYLE (Fc fusion) [matured modified peptide: Fc-(L SEQ ID NO: 285)-(P SEQ ID NO: 205), C-term] registered a concentration for 50% inhibition of NGF induced activity, DRG neutralization assay of more than 20 nM. The same measure for [… human IgG1 Fc …]GGGGGAQMQELLRELPLYEQYMALMPPGMLE (Fc fusion) [matured modified peptide: Fc-(L SEQ ID NO: 285)-(P SEQ ID NO: 258), C-term]: more than 20 nM; for [… human IgG1 Fc …]GGGGGAQLRELLSDLPMWEQYFRLMPPGYLE (Fc fusion) [matured modified peptide: Fc-(L SEQ ID NO: 285)-(P SEQ ID NO: 213), C-term]: more than 20 nM. For [… human IgG1 Fc …]GGGGGAQTQEWMMNLPLVEQYFGLTPPGMLE (Fc fusion) [matured modified peptide: Fc-(L SEQ ID NO: 285)-(P SEQ ID NO: 226), C-term], the concentration for 50% inhibition of NGF induced activity, DRG neutralization assay was more than 20 nM.

As for [… human IgG1 Fc …]GGGGGAQVTNILSQLPLWQQWLGLMPPGVLE (Fc fusion) [matured modified peptide: Fc-(L SEQ ID NO: 285)-(P SEQ ID NO: 206), C-term], the concentration for 50% inhibition of NGF induced activity, DRG neutralization assay is more than 20 nM. The molecule [… human IgG1 Fc …]GGGGGAQPTDQLGDWMLNYFRLVPPGTLE (Fc fusion) [matured modified peptide: Fc-(L SEQ ID NO: 285)-(P SEQ ID NO: 219), C-term] gave a concentration for 50% inhibition of NGF induced activity, DRG neutralization assay of less than 20 nM. On to [… human IgG1 Fc …]GGGGGAQQGMWPGAMSLLEQYFALTPPGLLE (Fc fusion) [matured modified peptide: Fc-(L SEQ ID NO: 285)-(P SEQ ID NO: 230), C-term], for which the concentration for 50% inhibition of NGF induced activity, DRG neutralization assay is less than 20 nM. For [… human IgG1 Fc …]GGGGGAQPTDQLGDWMLNYFRLVPPGTL (Fc fusion) [matured modified peptide: Fc-(L SEQ ID NO: 285)-(P SEQ ID NO: 272), C-term], the concentration for 50% inhibition of NGF induced activity, DRG neutralization assay was less than 20 nM. [… human IgG1 Fc …]GGGGGQTDWLSDLPLLEQYFRLMPPGV (Fc fusion) [matured modified peptide: Fc-(L SEQ ID NO: 285)-(P SEQ ID NO: 251), C-term] showed a concentration for 50% inhibition of NGF induced activity, DRG neutralization assay of less than 20 nM. Consider [… human IgG1 Fc …]GGGGGGGMIDWLSQNRLFEQYFELIPPG (Fc fusion) [matured modified peptide: Fc-(L SEQ ID NO: 286)-(P SEQ ID NO: 210), C-term], for which the concentration for 50% inhibition of NGF induced activity, DRG neutralization assay was less than 20 nM.

Molecule [… human IgG1 Fc …]GGGGGAQPTDQLGDWMLNYFRLVPPGT (Fc fusion) [matured modified peptide: Fc-(L SEQ ID NO: 285)-(P SEQ ID NO: 202), C-term] came in with a concentration for 50% inhibition of NGF induced activity, DRG neutralization assay of less than 20 nM. Consider [… human IgG1 Fc …]GGGGGPTDQLGDWMLNYFRLVPPGT (Fc fusion) [matured modified peptide: Fc-(L SEQ ID NO: 285)-(P SEQ ID NO: 221), C-term], for which the concentration for 50% inhibition of NGF induced activity, DRG neutralization assay is less than 20 nM. Molecule [… human IgG1 Fc …]GGGGGGGDQLGDWMLNYFRLVPPGT (Fc fusion) [matured modified peptide: Fc-(L SEQ ID NO: 286)-(P SEQ ID NO: 231), C-term] had a concentration for 50% inhibition of NGF induced activity, DRG neutralization assay of less than 20 nM. As for [… human IgG1 Fc …]GGGGGAQLAEWLQQIPLYEQYFGLMPPDLLE (Fc fusion) [matured modified peptide: Fc-(L SEQ ID NO: 285)-(P SEQ ID NO: 262), C-term], the concentration for 50% inhibition of NGF induced activity, DRG neutralization assay is more than 20 nM. Turning to [… human IgG1 Fc …]GGGGGAQNGDWMRGLPFLEQYFQLLPPGVLE (Fc fusion) [matured modified peptide: Fc-(L SEQ ID NO: 285)-(P SEQ ID NO: 271), C-term], the concentration for 50% inhibition of NGF induced activity, DRG neutralization assay is less than 20 nM. For [… human IgG1 Fc …]GGGGGQTDWRWDLPFVEDYFRLRPPGV (Fc fusion) [matured modified peptide: Fc-(L SEQ ID NO: 285)-(P SEQ ID NO: 238), C-term], the concentration for 50% inhibition of NGF induced activity, DRG neutralization assay was more than 20 nM. Consider [… human IgG1 Fc …]GGGGGAQAREWQTELPFFEQYFALMPPGVLE (Fc fusion) [matured modified peptide: Fc-(L SEQ ID NO: 285)-(P SEQ ID NO: 250), C-term], for which the concentration for 50% inhibition of NGF induced activity, DRG neutralization assay is more than 20 nM. [… human IgG1 Fc …]GGGGGAQQTNWCMGIPYCEQYFGLSPHGILE (Fc fusion) [matured modified peptide: Fc-(L SEQ ID NO: 285)-(P SEQ ID NO: 260), C-term] returned a concentration for 50% inhibition of NGF induced activity, DRG neutralization assay of more than 20 nM. Regarding [… human IgG1 Fc …]GGGGGQPTDQLGDWMLNYFRLVPPGTLE (Fc fusion) [matured modified peptide: Fc-(L SEQ ID NO: 285)-(P SEQ ID NO: 211), C-term], the concentration for 50% inhibition of NGF induced activity, DRG neutralization assay is less than 20 nM.

As for [… human IgG1 Fc …]GGGGGGGPTDQLGDWMLNYFRLVPPG (Fc fusion) [matured modified peptide: Fc-(L SEQ ID NO: 286)-(P SEQ ID NO: 227), C-term], the concentration for 50% inhibition of NGF induced activity, DRG neutralization assay was less than 20 nM. [… human IgG1 Fc …]GGGGGAQLADLLAQLPMWEQYLGLTPPSSLE (Fc fusion) [matured modified peptide: Fc-(L SEQ ID NO: 285)-(P SEQ ID NO: 212), C-term] gave a concentration for 50% inhibition of NGF induced activity, DRG neutralization assay of more than 20 nM. For [… human IgG1 Fc …]GGGGGAQNPGHLLDLPLFYQYFQLMPPGILE (Fc fusion) [matured modified peptide: Fc-(L SEQ ID NO: 285)-(P SEQ ID NO: 236), C-term], the concentration for 50% inhibition of NGF induced activity, DRG neutralization assay was less than 20 nM. [… human IgG1 Fc …]GGGGGAQQQQKLQCEFSTSGCPDLPLMLE (Fc fusion) [matured modified peptide: Fc-(L SEQ ID NO: 285)-(P SEQ ID NO: 279), C-term] gave a concentration for 50% inhibition of NGF induced activity, DRG neutralization assay of less than 20 nM. In the case of [… human IgG1 Fc …]GGGGGAQQSQKLQCEFSTSGCPDLPQQLE (Fc fusion) [matured modified peptide: Fc-(L SEQ ID NO: 285)-(P SEQ ID NO: 241), C-term], the concentration for 50% inhibition of NGF induced activity, DRG neutralization assay is less than 20 nM.

[… human IgG1 Fc …]GGGGGAQQSQKLQCEFSTSGCPDLPLQLE (Fc fusion) [matured modified peptide: Fc-(L SEQ ID NO: 285)-(P SEQ ID NO: 224), C-term] showed a concentration for 50% inhibition of NGF induced activity, DRG neutralization assay of less than 20 nM. Consider [… human IgG1 Fc …]GGGGGAQQSQKLQCEFSTSGCPDLPQMLE (Fc fusion) [matured modified peptide: Fc-(L SEQ ID NO: 285)-(P SEQ ID NO: 280), C-term], for which the concentration for 50% inhibition of NGF induced activity, DRG neutralization assay was less than 20 nM. The molecule [… human IgG1 Fc …]GGGGGAQQQQKLQCEFSTSGCPDLPLMLE (Fc fusion) [matured modified peptide: Fc-(L SEQ ID NO: 285)-(P SEQ ID NO: 259), C-term] registered a concentration for 50% inhibition of NGF induced activity, DRG neutralization assay of less than 20 nM.

[… human IgG1 Fc …]GGGGGAEQSQKLQCEFSTSGCPDLPQMLE (Fc fusion) [matured modified peptide: Fc-(L SEQ ID NO: 285)-(P SEQ ID NO: 216), C-term] displayed a concentration for 50% inhibition of NGF induced activity, DRG neutralization assay of less than 20 nM. [… human IgG1 Fc …]GGGGGAQQSQKLQCEFSTSGCPDLPLMLE (Fc fusion) [matured modified peptide: Fc-(L SEQ ID NO: 285)-(P SEQ ID NO: 235), C-term] displayed a concentration for 50% inhibition of NGF induced activity, DRG neutralization assay of less than 20 nM. [… human IgG1 Fc …]GGGGGAQLTDQLRLLPLYLQYFSLIPPVTLE (Fc fusion) [matured modified peptide: Fc-(L SEQ ID NO: 285)-(P SEQ ID NO: 253), C-term] returned a concentration for 50% inhibition of NGF induced activity, DRG neutralization assay of more than 20 nM. With [… human IgG1 Fc …]GGGGGPTDQLGDWMLNYFRLVPPGTLE (Fc fusion) [matured modified peptide: Fc-(L SEQ ID NO: 285)-(P SEQ ID NO: 237), C-term], the concentration for 50% inhibition of NGF induced activity, DRG neutralization assay was less than 20 nM.
